Assay results published in PubChem BioAssay AID686970 (National Center for Advancing Translational Sciences (NCATS), 2013).
Screen size: about 360,000 compounds; about 6,000 (1.7%) were called active. This list was built around the results that the source calls inconclusive (neither active nor inactive); the mix of calls is not that of the screen. Calls follow the shape of the dose curve; as a rule, active = well fitted cell-killing curve with a large enough effect; inconclusive = small, poorly fitted or top-dose-only effect, or effect the other way; inactive = flat fitted curve, though single readings scatter. Potencies of inconclusive entries are left out as doubtful fits.

assay: qHTS for induction of synthetic lethality in tumor cells producing 2HG: qHTS for the HT-1080-NT fibrosarcoma cell line; settings: HT-1080-NT fibrosarcoma viability, CellTiter-Glo ATP luminescence, 48 h; activity, negative = less viability: at 46.1 µM (top of the series) unless noted;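 also: NT is the 2HG producing partner of a matched IDH1 knockdown line; nearly all actives have a fitted effect of over 55% in size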;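 as to activity, negative = less viability: 0% = DMSO-treated cells and -100% = media-only wells without cells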
Outline: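 Read-out is CellTiter-Glo luminescence after 10 minutes at room temperature, following 48 hours' compound treatment of HT-1080-NT cells (750 cells/well, RPMI, 5% FBS, 37 degrees C).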
Potency is read from the fitted curve at half-maximal effect; tags tell the direction and shape of the fitted curve.

SMILES	Potency	activity, negative = less viability
CC1(C(=O)NCc2cccs2)Cc2c(-c3ccccc3)ccnc2O1 (stereo not drawn)	inconclusive [cytotoxic, full curve]	–
Cc1nc2cc(Oc3nc(NCCN(C)C)nc4ccsc34)ccc2s1	inconclusive [cytotoxic, single point]	–
O=C1c2ccccc2C(=O)c2c(NCCCN(CCO)CCO)cccc21	active: 20.6 µM	–
Cc1cc(Nc2cccc(F)c2)nc(NCc2ccccc2)n1	inconclusive [cytotoxic, single point]	–
COc1ccc2c(c1)c(CC(=O)NCc1cc([N+](=O)[O-])ccc1O)c(C)n2C(=O)c1ccc(Cl)cc1	inconclusive [cytotoxic, single point]	–
Cc1cccc2c(=O)n3c(cc12)-c1[nH]c2ccccc2c1CC3	inconclusive [cytotoxic, single point]	–
CC1=C(C(=O)OCc2ccccc2)C(c2ccc(Cl)cc2)NC(=O)N1C (stereo not drawn)	inconclusive [cytotoxic, single point]	–
O=C(c1nc2ccc(Cl)cn2c1CNCC[C@@H]1C[C@@H]2C=C[C@H]1C2)N1CCCCCCC1	inconclusive [cytotoxic, single point]	–
CCCCCc1c(C)nc(Nc2ccc(F)cc2)[nH]c1=O	inconclusive [cytotoxic, single point]	–
Cn1c(-c2ccc(Br)o2)nc2ccccc21	active: 11.6 µM	–
CCOc1ccc2oc(=O)cc(CN3CCN(Cc4ccccc4)CC3)c2c1	–	inconclusive: 30.9%
Cc1nc(-c2ccc(F)cc2)c(CC(=O)N2CCN(S(=O)(=O)c3cccc([N+](=O)[O-])c3)CC2)s1	inactive	–
CCCCNc1c(-c2ccc(OC)c(SC3CCCCC3)c2)nc2cnccn12	inconclusive [cytotoxic, single point]	–
CCOC(=O)C1(CC2CCCCO2)CCN(Cc2ccc(OC)cc2F)CC1 (stereo not drawn)	inconclusive [cytotoxic, partial curve]	–
CCOC(=O)C1=CN(CC2CCCO2)C=C(C(=O)OCC)C1c1ccccc1C(F)(F)F (stereo not drawn)	–	inconclusive: 32.9%
COc1cc(CNCc2ccccn2)ccc1OCC(N)=O	inactive	–
C/C(=C/C(=O)O)C(=O)Nc1cccc(C(F)(F)F)c1	inactive	–
COc1ccccc1NC(=O)c1ccc(-c2ccc(Br)cc2)o1	inconclusive [cytotoxic, single point]	–
CC(C)CC(=O)Nc1nc2ccc(S(=O)(=O)N3CCOCC3)cc2s1	active: 9.2 µM	–
Cn1cc(CN2CCCC(C(=O)c3ccc(-c4ccccc4)cc3)C2)cn1 (stereo not drawn)	inconclusive [cytotoxic, single point]	–
O=C(NCc1ccccc1)c1cc(C2COCCN2C(=O)c2ccccc2)on1 (stereo not drawn)	inconclusive [rising, partial curve]	–
Cc1cccc(/C=N/NC(=O)Cc2cccs2)c1	inactive	–
O=C(NNC1=Nc2ccccc2SC1)c1ccc(Cl)cc1	inconclusive [cytotoxic, partial curve]	–

SMILES	Potency	activity, negative = less viability
CN(C1CCCCC1)S(=O)(=O)c1ccc(NC(=S)NC(=O)c2cccs2)cc1	active: 2.51 µM	–
CC1(C)Oc2ccc3ccc(=O)oc3c2/C(=C/Nc2ccc(O)cc2)C1=O	inconclusive [cytotoxic, single point]	–
N#Cc1ccc(C(=O)Nc2nc(-c3cccs3)c(C(=O)C(F)(F)F)s2)cc1	active: 2.91 µM	–
CCN(CC)c1ccc2c(c1)OC(N)=C(C#N)C2c1cccnc1 (stereo not drawn)	inconclusive [cytotoxic, full curve]	–
O=C(CCNc1ccccc1)c1cccc([N+](=O)[O-])c1	inactive	–
Cc1ccc(NC(=O)N2CCC(c3nc4c(nnn4Cc4c(F)cccc4Cl)c(=O)[nH]3)CC2)cc1	inconclusive [cytotoxic, single point]	–
Cc1ccccc1NS(=O)(=O)c1cc(C(=O)Nc2cccc([N+](=O)[O-])c2)ccc1C	inconclusive [cytotoxic, partial curve]	–
CCOC(=O)[C@]12CCC=C1N(Cc1ccc(Cl)cc1Cl)C(=O)[C@H](CC(=O)NCc1cccc(C(F)(F)F)c1)C2	inconclusive [cytotoxic, partial curve]	–
COc1cc(/C=C2/C(=O)NN(c3ccc(F)cc3)C2=O)cc(Cl)c1O	inconclusive [cytotoxic, single point]	–
C/C(=N\NC(=O)c1cc(-c2ccco2)nc2ccccc12)c1cccnc1	inactive	–
NC(=O)c1ccccc1OCc1nnc(-c2ccccc2Br)o1	inactive	–
COc1cc(C2c3[nH]c4ccccc4c3CCN2Cc2cn(C)nc2C)ccc1F (stereo not drawn)	–	inconclusive: -30.6% [cytotoxic]
CCN1CCN(S(=O)(=O)c2ccc(C)c([N+](=O)[O-])c2)CC1	inactive	–
O=C(NCCCN1CCOCC1)c1cc(-c2ccccc2)on1	–	inconclusive: -36.4% [cytotoxic]
CCN(C(=O)CSc1nnc(-c2ccccc2Cl)n1N)c1c(N)n(Cc2ccccc2)c(=O)[nH]c1=O	inactive	–
Cc1sc(NC(=S)NC(=O)CCc2ccccc2)c(C(N)=O)c1C	active: 0.164 µM	–
CN1CCN(CCCNC(=O)c2ccc3c(Cl)c4c(nc3c2)CCCC4)CC1	inconclusive [cytotoxic, single point]	–
O=C(NCc1ccco1)c1nc2c(nnn2Cc2cccc(Cl)c2)c(=O)[nH]1	inconclusive [cytotoxic, single point]	–
O=C(N/N=C\c1ccc(Cl)cc1)c1sccc1-n1cccc1	inconclusive [cytotoxic, single point]	–
Cc1ccc(C(=O)COC(=O)CN2C(=O)C3C4CCC(C4)C3C2=O)cc1C (stereo not drawn)	inactive	–
CCc1sc(C(=O)Nc2ccc3nc(C)sc3c2)cc1C	inactive	–
C/C(CCc1oc2ccc(Br)cc2c1-c1ccc(C)o1)=N/O	–	inconclusive: -30.3% [cytotoxic]
Cc1ccc2sc(N(CCCN(C)C)C(=O)CCS(=O)(=O)c3ccccc3)nc2c1C	inconclusive [cytotoxic, single point]	–

SMILES	Potency	activity, negative = less viability
O=C(N/N=C/c1ccc(O)cc1)NC12CC3CC(CC(C3)C1)C2	inconclusive [cytotoxic, single point]	–
Cc1nc2c3cc(Cl)ccc3n(CCN3CCOCC3)c2s1	active: 23.1 µM	–
CCC[C@H](N[C@@H](C)C(=O)N1[C@H](C(=O)O)C[C@@H]2CCCC[C@@H]21)C(=O)OCC	inconclusive [cytotoxic, single point]	–
COCCNC(=O)c1cc2c(c(-c3cccc(-c4cc5ccccc5o4)c3)n1)[C@H](CCO)N(S(=O)C(C)(C)C)C2 (stereo partly drawn)	inconclusive [cytotoxic, single point]	–
CCCC(=O)O[C@]1(C(=O)COC(C)=O)CC[C@H]2[C@@H]3C[C@H](F)C4=CC(=O)C=C[C@]4(C)[C@@]3(F)[C@@H](O)C[C@@]21C	inconclusive [rising, full curve, poor fit]	–
COc1ccc(/C=C/C(=O)C2(O)CCCCC2)cc1OC	inconclusive [cytotoxic, single point]	–
O=C(CSc1nnnn1-c1ccc2c(c1)CCC2)Nc1ccc2c(c1)OCCO2	inconclusive [cytotoxic, single point]	–
COc1ccc(-n2c(SCC(=O)Nc3ccccc3)nnc2-c2ccc(NS(=O)(=O)c3ccc(C)cc3)cc2)cc1	inconclusive [cytotoxic, single point]	–
COCCCNC(=S)N1CCN(c2nc(C)nc3sc4c(c23)CCCC4)CC1	inconclusive [cytotoxic, single point]	–
O=C(Nn1nnnc1Nc1ccccc1)C12CC3CC(CC(C3)C1)C2	inconclusive [cytotoxic, single point]	–
CCn1c2c(c(=N)c3ccccc31)CCC2	inconclusive [cytotoxic, partial curve, poor fit]	–
COc1cc(-c2cn[nH]c2N)cc(OC)c1OC	inconclusive [cytotoxic, single point]	–
C=C1C(C(=O)Nc2ccc(OC)cc2)C1C(=O)Nc1ccc(OC)cc1 (stereo not drawn)	–	inconclusive: -8.9% [cytotoxic]
COCCNC(=O)C1(C)CCCN(C(=O)c2ccc(C#N)cc2)C1 (stereo not drawn)	inconclusive [rising, single point]	–
CC(C)(C)c1cnnn1-c1ccc(C(=O)CCl)cc1	inconclusive [cytotoxic, partial curve]	–
Oc1ccc(/C=N/Nc2nc(-c3cccnc3)nc3ccccc23)c(O)c1	inconclusive [cytotoxic, single point]	–
CCC/C=C/c1ccc(CN2C(CC(C)C)C(=O)N(Cc3cn(CC4CCCCC4)nn3)CCS2(=O)=O)cc1 (stereo not drawn)	inconclusive [cytotoxic, single point]	–
c1ccc(CNc2ncnc3[nH]ncc23)cc1	inconclusive [cytotoxic, single point]	–
CCCCN(Cc1ccccc1)C1CCN(Cc2ccccc2)CC1	inconclusive [cytotoxic, single point]	–
COc1cc([N+](=O)[O-])ccc1N/C=C/C(=O)c1cccs1	–	inactive: 4.47% [at 9.24 µM]
Cc1ccsc1C(=O)N(C)CC(=O)N(CC(C)C)c1c(N)n(CC(C)C)c(=O)[nH]c1=O	inactive	–
CCOc1ccc(-n2c(SCC(=O)Nc3cc(C(=O)O)ccc3Cl)nc3ccccc3c2=O)cc1	–	inconclusive: -32.7% [cytotoxic]
